In ChEMBL document CHEMBL4888484, “Replenishing the malaria drug discovery pipeline: Screening and hit evaluation of the MMV Hit Generation Library 1 (HGL1) against asexual blood stage Plasmodium falciparum ,using a nano luciferase reporter read-out” (2022):
The whole screen tested about 150,000 compounds, of which about 540 (0.36%) showed an effect of 50% or more. The list shows a part of the results.

tested on: Plasmodium falciparum; test: Primary screen in NF54 nanoGlo assay, in single point, at 2uM, 72h; a lower Z score goes with more inhibition; assay type: functional, Erythrocyte; conditions: timepoint 72 hour

SMILES | % Inhibition | Z score
Cc1csc([C@@H](C#N)C(=O)c2cnn(CC(C)C)c2C2CC2)n1 | 4% | -0.76
COc1ccc(-n2ncc3c(N4CCN(C(=O)c5ccc(Cl)cc5)CC4)nc(C4CC4)nc32)cc1 | -19% | 2
CCCc1cc(=O)n(CC(=O)Nc2c(C)cccc2C)c(-c2ccc(F)cc2)n1 | -22% | 1.92
CN(C)c1nc(-c2ccc(C(N)=O)c(Cl)c2)n[nH]1 | -17% | 1.81
O=C(CN1CCO[C@H]2CCC[C@H]21)Nc1ccc2c(c1)CCC2 | -5% | 0.57
O=C1NCCCCCCN(Cc2ccncc2)[C@@H]2CN(C(=O)NC3CCCCC3)CC[C@@H]12 | -11% | 1.47
CCNC(=O)O[C@@H]1CC[C@]2(C)C(CC[C@@H](O)[C@H]2CC(=O)NCc2cccs2)[C@]1(C)CO (stereo partly specified) | -4% | 0.6
CN1C(=O)CC(c2nc(CCc3ccccc3)no2)C1c1cccnc1 (stereo unspecified) | -5% | 0.42
COCCC[C@H]1CCCCN1C(=O)CN(C)c1ccccc1 | -15% | 1.94
CC(=O)N1CCC(Oc2ccc(Cl)cc2C(=O)N(C)Cc2csc(C)n2)CC1 | 7% | -0.93
Clc1cccc(-c2nc(N3CCCCCC3)nc3c2COc2ccccc2-3)c1 | -7% | 1.07
CCn1nc(COc2ccccc2)nc1[C@@H]1CCCN1C(N)=O | -10% | 1.47
O=C(NC1CC=CCC1C(F)(F)F)c1cnnc2ccccc12 (stereo unspecified) | -2% | 0.29
Nc1cnc2ccc3nn(-c4ccccc4)nc3c2n1 | 3% | -0.4
Cc1ccc(CNC(=O)c2[nH]c(C)c(S(=O)(=O)N3CCCCC3)c2C)cc1 | -12% | 1.63
Cc1nc2n(n1)CCN(S(=O)(=O)CC1CCC(C3CC3)O1)C2 (stereo unspecified) | 3% | -0.51
Cc1nonc1C(=O)NC1(c2ccccc2)COC1 | 6% | -1.1
COc1ccccc1-c1ncc(CN2C[C@H](O)[C@@H](N3CCCC3)C2)cn1 | 4% | -0.84
CN1CCC(Oc2nc3ccccc3cc2C#N)CC1 | -3% | 0.47
CCn1cncc1CN(C)[C@H]1C[C@H](c2cccc(OC)c2)C1 | 1% | -0.08
O=C(CC(c1ccccc1)c1ccccc1)N1CCNC(=O)C12CCCC2 | -6% | 0.91
COc1ccccc1-c1cc2nc(C)cc(N3CCN(CCO)CC3)n2n1 | -14% | 1.98
Cn1cccc(C(=O)N2CCC(c3nnc(C(F)(F)F)o3)CC2)c1=O | -12% | 1.33
CCC1(CC)CCN(C(=O)[C@]2(C)CCCN2)C1 | -16% | 2.52
Cc1cccc(C(=O)NC[C@](C)(O)c2ccc(F)cc2F)n1 | 3% | -0.45
CS(=O)(=O)CC1(CC(=O)N2CCCCO2)CC1 | -29% | 3.38
O=C(C1=CCCC1)N1CCC2CCCC21 (stereo unspecified) | -1% | 0.11

SMILES | % Inhibition | Z score
COc1ccccc1N1CCN([C@H]2[C@@H]3OC[C@@H](O3)[C@@H](NCc3ccccn3)[C@@H]2O)CC1 | 5% | -0.78
C[C@@H](c1ccccc1)n1c(=O)c2c(ncn2Cc2ccccc2)n(-c2cccc(Cl)c2)c1=O | -8% | 0.76
Cc1ccc(NC(=O)[C@]2(Cc3cccnc3)CCCCC(=O)N2)cc1 | -4% | 0.81
COc1ccc(CNC(=O)N(C)[C@H]2CCN(C)C2)c(OC)c1 | 2% | -0.19
C/C(=C\c1ccccc1)CN1[C@H]2CCNC[C@@H]1CC2 | -8% | 1.08
Cn1ccc2c(cc(C(=O)N3CCN(c4ccc(F)cc4)CC3)n2C)c1=O | -2% | 0.19
CC(C)CN(C(=O)[C@@H]1CCCO1)C1CC1 | 7% | -0.75
CC(=O)c1cccc(-n2cnnc2CCc2c(C)n[nH]c2C)c1 | 6% | -0.77
CC(C)N1CCC(Nc2ccc3c(c2)CCC(=O)N3CC2CC2)CC1 | -7% | 0.94
CC(=O)NC[C@H]1CCN(Cc2cc(Cl)ccc2F)C[C@H]1N(C)C | -7% | 0.94
C[C@@H](CCc1nc(-c2cccc3c2ccn3C)n[nH]1)N1CCN(C)CC1 | 23% | -2.98
C[C@H](O)c1cccc(-c2cccc3cccnc23)n1 | -10% | 1.3
Cc1cc(N2CCC(C)CC2)nc2ccc(NC(=O)c3cccnc3)cc12 | 18% | -2.1
Cc1c(C#N)c(NC(=O)COC[C@H]2CCCO2)n2ccccc12 | -13% | 1.77
COc1ncc(CNC(=O)N2CCOCC3(CCC3)C2)cc1Cl | -14% | 2.68
CCCCn1nc(-c2ccncc2)nc1-c1cnccn1 | -8% | 1.54
COCCNC(=O)c1c(C)c(S(=O)(=O)N2CCC(C)CC2)c(C)n1C | -5% | 0.6
O=C(Cn1cnc2ccccc2c1=O)N1CCN(c2ccc(C3CC3)nn2)CC1 | 10% | -1.25
CC(C)(O)C#Cc1ccc(C(=O)N2CCC[C@H](c3nnc[nH]3)C2)o1 | -9% | 1.13
Cc1ccc(-n2c(=O)c3sccc3n(CC(=O)NCc3ccc(F)cc3F)c2=O)cc1C | 33% | -4.77
CC(C)N(CC(=O)Nc1nc(CC(=O)N[C@@H](Cc2ccccc2)c2ccccc2)cs1)C(=O)c1ccccc1 | -8% | 0.92
O=C(Nc1cnc(N2CCCC2)nc1)c1ccc(Br)cc1 | -18% | 1.6
Cc1sccc1C(=O)NC1CCC(O)(c2cccc(F)c2)CC1 (stereo unspecified) | -10% | 1.24
Cc1ccc(C)c(-c2cn3c(C(=O)N(C)Cc4cc(C)no4)csc3n2)c1 | 5% | -0.62
NC(=O)[C@@H]1COCCN1Cc1csc2ccccc12 | -14% | 1.82
O=C(NCC1CCOCC1)c1cc(C(F)F)n[nH]1 | -4% | 0.67
